We go through eight molecules from PubChem BioAssay AID1963980 (Molecular Pharmacology Branch, DTP, NCI, 2024).

Certain results were filed several times, with different values. The other results are left out here. The source may hold further records. Values that stand side by side repeat one measurement in other runs, samples, wells, individuals or studies.

The test has as its system 475296-252-R-J1-PDC spheroid viability. As to the kind of experiment: Anticancer human tumor 475296-252-R-J1-PDC patient-derived rectal carcinoma cell line growth inhibition [PI3K]. Particulars: stronger effect = lower value, spheroids with HUVEC and MSC. From the text: Combinatorial screen of targeted agents with the PI3K inhibitors inavolisib, alpelisib, duvelisib, and copanlisib in multi-cell type tumor spheroids
A high-throughput screen of multi-cell type tumor spheroids was designed to identify active combinations of targeted small molecules and PI3K pathway inhibitors. Complex spheroids include a stromal component modeled by human endothelial cells (HUVEC) and fibroblasts modeled by human mesenchymal stem cells (MSCs). The concentration ranges selected for each drug and investigational agent were based upon clinically achievable concentrations if the clinical Cmax of the agent was known.
Compounds. The drugs and investigational agents: inavolisib (NSC800729), alpelisib (NSC765974), duvelisib (NSC772469), copanlisib (NSC816437), ipatasertib (NSC767898), afuresertib (NSC778305), talazoparib (NSC767125), sapanisertib (NSC764658), selumetinib (NSC741078), tovorafenib (DAY101, NSC766906), vemurafenib (NSC761431), ravoxertinib (NSC781343), sotorasib (NSC818433), MRTX1133 (NSC 836407), abemaciclib (NSC 768073), palbociclib (NSC758247), venetoclax (NSC 766270), SY5609 (NSC837396), enzalutamide (NSC755605), and darolutamide (NSC825331), were obtained from the National Cancer Institute (NCI) Developmental Therapeutics Program Chemical Repository. The FDA-approved anticancer drug set is available from the NCI Developmental Therapeutics Program. […] The stock solutions were prepared in dimethyl sulfoxide (DMSO, Sigma-Aldrich, St. Louis, MO, cat. D2650) at 800-fold the tested concentration and stored at -70 degrees C prior to their use. All drugs and investigational agents were tested over a range starting from a high concentration at or near the clinical Cmax and decreasing in half-log increments. If the clinical Cmax for an agent had not been determined, the highest concentration tested was 10 microM.
Cell Culture. All cells were maintained in an incubator at 37 degrees C and 5% CO2 with 95% humidity. The PDC lines were cultured according to standard operating procedures established by the NCI PDMR (https://pdmr.cancer.gov/sops/default.htm). All PDCs were thawed and cultured in Matrigel-coated flasks prepared with a working solution of 1X Ham's F-12 nutrient mix, without supplementation (Invitrogen, Waltham, MA, cat. 11765054), 100 U/mL penicillin-streptomycin (Invitrogen, cat. 15140122), and 2.5% Matrigel (Corning Inc., Corning, NY, cat. 354248) for the first three passages. The 354836-022-R-J1-PDC, 475296-252-R-J1-PDC, and 997726-040-R-J2-PDC lines were cultured in 6A media, which includes advanced DMEM/F-12 (Thermo Fisher Scientific, cat. 12634028), 10 mM HEPES (Thermo Fisher Scientific, cat. 15630080), 1X GlutaMAX supplement (Thermo Fisher Scientific, cat. 35050061), 0.1 mg/mL primocin (InvivoGen, San Diego, CA, cat. ant-pm-2), 10% defined fetal bovine serum, heat inactivated (HyClone Laboratories Inc., Logan, UT, cat. SH30070.03HI), 50% L-WRN conditioned media (ATCC, cat. CRL-3276), 1.25 mM N-Acetyl-L-cysteine (Sigma-Aldrich, cat. A9165), 10 mM nicotinamide (Sigma-Aldrich, cat. N0636), 1X B-27 supplement (Thermo Fisher Scientific, cat. 17504044), 1X N-2 supplement (Thermo Fisher Scientific, cat. 17502048), and 10 microM Y-27632 dihydrochloride (Tocris Bioscience, Bristol, United Kingdom, cat. 1254). The 624824-186-R-J2-PDC line was cultured in 6C/Colon 1B media, which includes all 6A media components plus 50 ng/mL human EGF recombinant protein (Thermo Fisher Scientific, cat. PHG0311). […]
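Further: spheroids exposed to agents for seven days before readout.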

One may read the viability, T/C as the ratio of treated to control. `C=CC(=O)N1CCN(c2nc(=O)n(-c3c(C)ccnc3C(C)C)c3nc(-c4c(O)cccc4F)c(F)cc23)C(C)C1` (centres undefined): the viability, T/C (compound alone 0.0316 µM) was 101, 98.6, 76.6, 103%.

Take `CC1(C)CCC(CN2CCN(c3ccc(C(=O)NS(=O)(=O)c4ccc(NCC5CCOCC5)c([N+](=O)[O-])c4)c(Oc4cnc5[nH]ccc5c4)c3)CC2)=C(c2ccc(Cl)cc2)C1`: the viability, T/C (compound alone 10 µM) is reported as 66.5, 60, 100, 57.2%.

In the case of `CC1(C)CCC(Nc2ncc(C(F)(F)F)c(-c3c[nH]c4c(P(C)(C)=O)c(C#N)ccc34)n2)CN1` (centres undefined), the viability, T/C (compound alone 10 µM) is listed as 88.7, 80.9, 52.3, 56.9%.

`C#Cc1c(F)ccc2cc(O)cc(-c3ncc4c(N5CC6CCC(C5)N6)nc(OCC56CCCN5CC(F)C6)nc4c3F)c12` (centres undefined): the viability, T/C (compound alone 3.16 µM) is listed as 86.8, 72.3, 62.4, 59.4%.

As for `Cn1cnc2c(F)c(Nc3ccc(Br)cc3Cl)c(C(=O)NOCCO)cc21`, for the setting “compound alone 0.949 µM”, the viability, T/C is 86.4, 84.8, 67, 58.9%.

As to `CNC(=O)c1ccc(N2C(=S)N(c3ccc(C#N)c(C(F)(F)F)c3)C(=O)C2(C)C)cc1F`, the viability, T/C (compound alone 0.0316 µM) was 105, 86.9, 107, 112%.

Turning to `CC(C)n1nc(-c2ccc3oc(N)nc3c2)c2c(N)ncnc21`, the viability, T/C runs as follows: (compound alone 0.01 µM) 76.4, 75.9, 88, 107%; (compound alone 0.0316 µM) 75.6, 61.6, 71.3, 88.5%.

Turning to `Cn1nccc1Nc1nccc(-c2ccn(C(CO)c3ccc(Cl)c(F)c3)c(=O)c2)n1` (centres undefined), the viability, T/C (compound alone 3.16 µM) is recorded as 115, 98.2, 87.7, 101%.
